Hit rate of the full screen: of about 52,000 compounds, about 4,300 (8.3%) were called active. Cut-off read from the data, not from the text of the source: active = survival mostly below about 52% (no sharp cut-off); inactive = mostly above about 56%. Some of the results follow.

This experiment relates to DeltatarO mutant. Briefly: S. aureus survival, RN4220 and DeltatarO strains – OD600, teichoic acid synthesis inhibitors, primary screen (AID 463173). The conditions noted are these: S. aureus RN4220 wild type/DeltatarO growth, OD600, 18 h, active compounds read low, screened at 18.75 µg/mL (by protocol).
With `Cc1ccc(C(C)C)c(OCCCn2c(=O)oc3ccccc32)c1`, the survival was active: -3%. Next, `CC(CNS(=O)(=O)c1ccc2c(c1)CC(=O)N2C)c1ccccc1` (stereo not given): inactive: 100%; `CCOC(=O)c1c(C)oc2nc(C)nc(NCCCN3CCN(c4ccc(F)cc4)CC3)c12`: inactive: 84%; `O=C(NC(=S)N1CCCC(C(F)(F)F)C1)c1ccc(F)cc1` (stereo not given): inactive: 87%.

In the case of `COc1ccccc1NC(=O)c1ccc2oc(=O)c(S(=O)(=O)c3ccccc3)cc2c1`, the survival is inactive: 98%.

`COc1ccc(C(=O)NCCn2cc(SCc3cc(C)ccc3C)c3ccccc32)cc1`: the survival was inactive: 57%.

`COc1cccc(NC(=O)C2CCN(c3nc4ccccc4nc3C(F)(F)F)CC2)c1`: the survival was inactive: 55%. Next, `Cc1cccc(Cn2nnc(C(=O)Nc3cc(C)ccc3C)c2N)c1`: inactive: 100%.

On to `Cc1cccc(C)c1NC(=O)CCCN1C(=O)CCn2nc(-c3cn(C)c4ccccc34)cc21`, for which the survival was inactive: 124%. In the case of `Cc1ccc(CNC(=O)CCCn2c(=O)c3ccccc3n(Cc3ccccc3C)c2=O)cc1`, the survival was inactive: 70%.

Turning to `CC(C)NC(=O)C1CCCN(c2ncnc3c2nc2n3CCCCC2)C1` (stereo not given), the survival was inactive: 73%. `Cc1cccc(Cn2cnc3c(cnn3-c3ccc(Cl)cc3)c2=O)c1`: the survival is inactive: 87%. As to `Cc1ccc(CN2CCN(C3CCN(C(=O)Nc4ccccc4C(F)(F)F)CC3)C(=O)C2=O)cc1`, the survival was inactive: 73%.

For `CCn1c(=O)cc(OCC(=O)N2CCN(c3ccccc3OC)CC2)c2ccccc21`, the survival is inactive: 68%.

Take `Cc1ccc(S(=O)(=O)n2nc(-c3ccco3)nc2NCc2ccccc2Cl)cc1`: the survival is inactive: 66%. In the case of `Cn1c(CNC(=O)CSc2nc(-c3cccc(Cl)c3)nc3cc(=O)[nH]n23)nc2ccccc21` it was inactive: 120%; in that of `CON(C)c1nc(Cl)nc(N(C)C)n1`, inactive: 108%. `CCC(Oc1ccccc1)C(=O)Nc1ccc(OCc2cc(=O)n3ccccc3n2)cc1` (stereo not given): the survival was inactive: 77%. In the case of `CCOc1ccc(CNC(=O)C2Cc3ccccc3N2C(=O)CC)cc1` (stereo not given) it was inactive: 71%; in that of `COC(=O)c1ccccc1NC(=O)c1ccc2c(=O)n3c(nc2c1)CCCCC3`, inactive: 102%; in that of `CCCN1CCN(c2cc3c(cc2F)c(=O)c(S(=O)(=O)c2ccc(Cl)cc2)cn3C)CC1`, inactive: 75%. Turning to `Cn1c(=O)n(C)c2cc(N3CCOCC3)c(NC(=O)c3c(F)cccc3F)cc21`, the survival was inactive: 97%.

With `COc1ccc(C(=O)NCC(c2ccc(N(C)C)cc2)N2CCc3ccccc32)cc1` (stereo not given), the survival is inactive: 118%. In the case of `Cc1cc(C)c2sc(NC(=O)c3ccc(S(=O)(=O)N4CCOCC4)cc3)nc2c1` it was inactive: 101%; in that of `CC(C)C(=O)N1C2CCC1CC(O)(c1ccccc1F)C2` (stereo not given), inactive: 86%; in that of `COc1cc(OC)c(NC(=O)Nc2c(C)n(C)n(-c3ccccc3)c2=O)cc1Cl`, inactive: 89%. Turning to `CCc1cc2c(-c3ccccc3)cc(=O)oc2c2c1OCN(Cc1ccc(F)cc1)C2`, the survival is inactive: 60%. For the compound `O=C(NC1CC(=O)N(c2cccc(F)c2)C1)C(c1ccccc1)c1ccccc1` (stereo not given), the survival is inactive: 74%.

In the case of `CCOc1ccc(C2CC(=O)c3c([nH]c(C(=O)OC4CCC(C)CC4)c3C)C2)cc1` (stereo not given), the survival was inactive: 87%. As to `CCC(=O)Nc1ccc(Cl)cn1`, the survival was inactive: 96%. Next, `COc1ccccc1N1CCN(C(=O)CN2C(=O)COc3ccc(S(=O)(=O)N4CCCC4)cc32)CC1`: inactive: 108%; `CCc1cccc(NC(=O)CSc2nc3ccsc3c(=O)n2CC)c1`: inactive: 42%. With `Cc1cccc(C=Nc2ccc3[nH]ncc3c2)c1O`, the survival is inactive: 70%.

Take `CCc1nc(SCc2cc(=O)c3cc(C)ccc3[nH]2)n[nH]1`: the survival was inactive: 67%.

Regarding `Cc1ccc(CNC(=O)Cn2c(=O)n(Cc3ccccc3)c(=O)c3sc4ccccc4c32)cc1`, the survival is inactive: 76%. With `Cc1ccc(CN(Cc2cccn2-c2nnc(N3CCCC3=O)s2)C(=O)Nc2ccccc2C(F)(F)F)cc1`, the survival is inactive: 101%. Next, `CC(=O)NC1C(=O)N(CCc2ccccc2)c2ccc(C)cc21` (stereo not given): inactive: 81%; `O=C(CN1C=NS(=O)(=O)c2ccc(C(F)(F)F)cc21)Nc1cccc(C(F)(F)F)c1`: inactive: 74%.

Regarding `CCOC(=O)c1cc(NC(=O)c2ccc(Cl)cc2)c(=O)n2c1oc1ccccc12`, the survival was active: 34%. `O=C(Cn1ncn2nc(-c3cccs3)cc2c1=O)NCc1ccccc1Cl`: the survival was inactive: 84%. Next, `CC(C)c1ccc(NC(=O)c2ccc(Cn3nc(N4CCN(c5ccccc5)CC4)ccc3=O)o2)cc1`: inactive: 67%; `CCc1ccc(N2C(=O)CSC23C(=O)N(Cc2cccc(OC)c2)c2ccccc23)cc1` (stereo not given): inactive: 77%; `CCn1c(=NC(=O)c2ccc(S(=O)(=O)N3CCCC3)cc2)sc2cc(Br)ccc21`: inactive: 60%. In the case of `CCOC(=O)c1c(C)c(-c2ccccc2)n(CC(=O)NC2CCCCCC2)c1C` it was inactive: 75%; in that of `Cc1c(C(=O)N(Cc2cccc(F)c2)C2CCS(=O)(=O)C2)oc2cc(Br)ccc12` (stereo not given), inactive: 63%. In the case of `O=c1cc(-c2ccc(F)cc2)nc(SCc2nc(-c3cccc(C(F)(F)F)c3)no2)[nH]1`, the survival is inactive: 99%. Next, `COc1ccc(NC(=O)CN2C(=O)C3(SCC(=O)N3c3ccccc3)c3ccccc32)cc1Cl` (stereo not given): inactive: 97%; `CC(C)NC(=O)CC1Sc2ccccc2NC1=O` (stereo not given): inactive: 99%; `COc1ccc(CNC(=O)c2cccc(N3CCCS3(=O)=O)c2)cc1OC`: inactive: 89%.

Consider `CCc1c(C)sc2c1CCN(C(=O)Nc1cc(C)ccc1OC)C2c1ccc(F)cc1` (stereo not given), for which the survival is inactive: 144%. For `COc1ccc(-c2c(C)nn3c(N4CCN(c5ccccc5F)CC4)cc(C)nc23)cc1OC`, the survival is inactive: 69%.

As to `O=C(C1CC2c3ccccc3C1c1ccccc12)N1CCOCC1` (stereo not given), the survival was inactive: 86%. For `CCN1CCN(C(c2ccccc2F)c2c(O)cc(C)n(CCOC)c2=O)CC1` (stereo not given), the survival is inactive: 73%. In the case of `N#Cc1ccc(NC2=NS(=O)(=O)c3ccccc32)cc1` it was inactive: 68%. In the case of `CCC(=O)N1CCc2cc(CNS(=O)(=O)c3ccc(Br)s3)ccc21` it was active: 47%; in that of `Cc1ccc(C)c(N2C(=O)N(C)c3ccccc3S2(=O)=O)c1`, inactive: 87%. Next, `COc1ccc(-n2c(C)nc3cc(C(=O)NC4CCCCCC4)ccc32)cc1`: inactive: 118%; `CCCN(CCC)CCNC(=O)c1sc2nc3n(c(=O)c2c1C)CCCCC3`: active: 62%. On to `CC1CCCN(S(=O)(=O)c2ccc(N3CCCCS3(=O)=O)cc2)C1` (stereo not given), for which the survival is inactive: 74%. In the case of `Cc1nn(-c2ccccc2)c(Cl)c1C1N2CCCN1CC2` (stereo not given) it was inactive: 109%; in that of `C=CCc1ccc(OCc2ccc(C(=O)Nc3ccc(NC(C)=O)cc3)o2)c(OC)c1`, inactive: 121%.

For the compound `COc1cccc(NC(=O)Cn2cc(C(=O)c3ccc(F)cc3)c(=O)c3cc(OC)ccc32)c1`, the survival was inactive: 92%.

For `O=C(Nc1ccc(NC(=O)C2CCCCC2)nc1)C1CC1`, the survival is inactive: 95%.

`Cc1cccc(Cn2cnc3c(oc4ccccc43)c2=O)c1`: the survival was inactive: 89%. As to `COc1ccc(-c2cc(OC(=O)c3ccccc3)c3c(C)oc(C)c3c(=O)c2)cc1OC`, the survival is inactive: 74%. Next, `COc1cccc(NC(CNS(=O)(=O)c2ccc(Cl)cc2)c2ccccc2)c1` (stereo not given): inactive: 79%. Regarding `CC(C)c1ccc2c(c1)NC(c1ccncc1)=NC(c1cccs1)=N2`, the survival is inactive: 72%.

Take `CCc1cccc(NC(=O)C(NS(=O)(=O)c2ccc3nc(C)sc3c2)C(C)C)c1` (stereo not given): the survival was inactive: 83%.

For `C#CCSc1nc(-c2ccccc2)c2cc(Cl)ccc2n1`, the survival is inactive: 51%. Regarding `CCOc1ccccc1NC(=O)CCc1c(C)nc2c(c(C)nn2-c2ccccc2)c1C`, the survival was inactive: 72%. Next, `Cc1ccc(Cl)cc1N1CCN(C(=O)c2ccc3c(c2)N(Cc2ccccc2F)C(=O)c2ccccc2S3=O)CC1` (stereo not given): inactive: 71%. Next, `O=C(CCS(=O)(=O)c1cc(Br)cc2c1N(C(=O)C1CC1)CC2)Nc1ccc(F)cc1`: inactive: 132%; `Cc1ccc(CNC(=O)c2sc3nc(-c4ccccc4)cn3c2C)cc1`: inactive: 123%; `CCN(C(=O)Cn1c(=O)nc(-c2ccccc2)c2cc(Cl)ccc21)c1cccc(C)c1`: inactive: 79%. In the case of `CCOc1ccc(CCNC(=O)Cn2ncc3c([nH]c4ccccc43)c2=O)cc1OCC` it was inactive: 101%; in that of `Cc1cncn1CCc1nc2c3ccccc3nc(SCC(=O)Nc3ccc(F)cc3)n2n1`, inactive: 101%. For `CCc1cccc(NC(=O)C2CCC(CNS(=O)(=O)c3ccc4c(c3)CCCC(=O)N4)CC2)c1` (stereo not given), the survival was inactive: 93%. In the case of `CC(=O)Nc1nc(C(=O)O)cs1` it was inactive: 90%. Next, `OCCN1CCN(C(c2ccc(Cl)cc2Cl)c2sc3nc(-c4ccco4)nn3c2O)CC1` (stereo not given): inactive: 85%.

Consider `CCc1nc2ccc(C(=O)NCc3ccc(SC)cc3)cc2nc1CC`, for which the survival was inactive: 69%. Next, `Clc1ccccc1-c1nnc(-c2ccccc2CNc2ccc(Br)cc2)o1`: inactive: 74%; `CCOc1ccc(-n2c(SCC(=O)Nc3ccc4c(c3)OCCO4)nc3c([nH]c4ccccc43)c2=O)cc1`: inactive: 117%. Next, `CCOc1ccc(CCNC(=O)c2cn(-c3cccc(OC)c3)c(=O)c3ccccc23)cc1`: inactive: 74%; `CCC(C)NC(=O)c1ccc2c(c1)N(Cc1ccccc1F)C(=O)c1ccccc1S2=O` (stereo not given): inactive: 64%. For `Cn1c(=O)oc2cc(S(=O)(=O)NCCC(=O)NCc3ccc(F)cc3)ccc21`, the survival is inactive: 91%. In the case of `Cc1ccc(F)c(NC(=O)C2CCCCC2C(=O)O)c1` (stereo not given) it was inactive: 70%; in that of `COc1cc(S(=O)(=O)N2CCCCC2C)c(OC)cc1Cl` (stereo not given), inactive: 114%; in that of `O=C(NCc1ccc(F)cc1)c1ccc(Cn2c(SCc3ccc(F)cc3)nc3cccnc32)cc1`, inactive: 78%.

Regarding `CCCN1C(=O)c2[nH]nc(-c3cccc(OC)c3)c2C1c1ccccn1` (stereo not given), the survival was inactive: 82%.

On to `CC(C)Cn1c(=O)c2ccccc2n2c(CCC(=O)NCc3ccc(Cl)cc3)nnc12`, for which the survival was inactive: 77%.

These data come from PubChem BioAssay AID463173 (ICCB-Longwood Screening Facility, Harvard Medical School, 2010).
